Assay results as given in the supplement of paper PMC10126150.
Values marked as one replicate rest on one cluster of the flow cell; about a third of the high ones do not repeat.

Test system: ATP
Test: switch fluorescence ratio, 500 uM ATP over buffer (Cy3 cluster intensity, sum of 5 cycles each) (fold (ratio)); higher = stronger signal-on switching upon ATP binding; sequences stand for … in TCGTCGGCAGCGTCAGATGTGTATAAGAGACAGTTTTTTTTTTTTTTTTTTTTTTTTT…TC
Settings: aptamer strand: ATP DNA aptamer (quencher-CACCTGGGGGAGTATTGCGGAGGAAGG + anchor), 100 nM annealed; ATP concentration: 500 uM; one replicate
Outline: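 Per cluster, summed Cy3 intensity from the target cycles was divided by that from the buffer cycles to give the fluorescence ratio, then averaged per switch-domain sequence. Clusters outside 100-1000 RFU were excluded. The Cy3-labelled switching-strand clusters, on a modified Illumina MiSeq flow-cell, were annealed to 100 nM quencher-labelled ATP aptamer and imaged in selection buffer, then after 15 min with 500 uM ATP at 22 °C, for five cycles with NaOH stripping and re-annealing between them.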
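Further: ATP exposure 15 min at 22 °C before imaging.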

| Sequence | switch fluorescence ratio |
| --- | --- |
| GTAAAACCGA | 1.03 |
| GTAAATATAA | 1.01 |
| GTAACACGGC | 0.962 |
| GTAACCGGTT | 0.979 |
| GTAACGGGAC | 1.13 |
| GTAACTATAT | 1.08 |
| GTAACTCGGC | 0.999 |
| GTAAGAAAAG | 0.999 |
| GTAAGACAAC | 1 |
| GTAAGCAGTT | 1 |
| GTAAGGAATT | 0.94 |
| GTAAGGGGAA | 1.02 |
| GTAATAACCA | 1.02 |
| GTAATAACTC | 1.12 |
| GTAATCAAGG | 0.956 |
| GTAATCCCTG | 1.02 |
| GTAATCTGGA | 1.14 |
| GTAATCTTGT | 1.02 |
| GTAATGACGA | 1.04 |
| GTAATGAGTC | 0.984 |
| GTAATGGATG | 1.01 |
| GTAATTCTTC | 1 |
| GTAATTGAAA | 0.988 |
| GTACAACCAG | 1.05 |
| GTACACCTCT | 0.999 |

| Sequence | switch fluorescence ratio |
| --- | --- |
| GTACACTTCG | 1.04 |
| GTACAGGAAC | 1.05 |
| GTACAGTATC | 1.11 |
| GTACCAAGGG | 1.12 |
| GTACCACACA | 1.24 |
| GTACCCAGGT | 1.07 |
| GTACCCCCGT | 1.48 |
| GTACCGTCGC | 1.05 |
| GTACGAATGC | 1.29 |
| GTACGTGGCT | 0.987 |
| GTACTAAACT | 1.11 |
| GTACTGAACC | 1.24 |
| GTACTTACAT | 1.22 |
| GTAGAAGTCG | 1 |
| GTAGATATAC | 1.54 |
| GTAGATTCGT | 1.01 |
| GTAGATTGTT | 0.982 |
| GTAGCACGTC | 1.08 |
| GTAGCAGGGA | 1.15 |
| GTAGCGCCGT | 0.989 |
| GTAGCGCTCG | 1 |
| GTAGCGGTCA | 1.02 |
| GTAGCTTCGG | 0.994 |
| GTAGGATGCG | 0.996 |
| GTAGGCACCT | 1.02 |

| Sequence | switch fluorescence ratio |
| --- | --- |
| GTAGGCTACT | 1.03 |
| GTAGGTGCAG | 0.929 |
| GTAGGTGTCG | 0.999 |
| GTAGTCACTA | 0.973 |
| GTAGTCAGCA | 1.03 |
| GTAGTCTGTA | 0.98 |
| GTAGTGCTAA | 0.965 |
| GTATACCGGG | 0.974 |
| GTATCAAGTG | 0.951 |
| GTATCACGCT | 1 |
| GTATCCACGG | 1.07 |
| GTATCCAGCC | 0.955 |
| GTATCGTCAC | 1.02 |
| GTATGAGCGA | 1.03 |
| GTATGATCTT | 0.928 |
| GTATGCTATG | 1.01 |
| GTATGGGAAG | 0.984 |
| GTATGGGTAG | 1.01 |
| GTATGTACGA | 0.999 |
| GTATGTACGT | 1.04 |
| GTATGTCTCT | 0.999 |
| GTATTAAAAT | 1.01 |
| GTATTAAGAT | 0.982 |
| GTATTATGAC | 1.01 |
| GTATTCTGTG | 1.05 |

| Sequence | switch fluorescence ratio |
| --- | --- |
| GTATTGAGCT | 0.966 |
| GTATTGGAGG | 0.979 |
| GTATTGGCTC | 1.01 |
| GTATTTTGGT | 0.954 |
| GTCAACTATC | 1.01 |
| GTCACATGG | 0.999 |
| GTCACCCCTG | 1.05 |
| GTCACCTGCC | 2.04 |
| GTCACGCACT | 1.9 |
| GTCACGTCCT | 0.992 |
| GTCAGAATAG | 0.979 |
| GTCAGCGTGC | 0.995 |
| GTCAGGTTCG | 0.988 |
| GTCAGTGTT | 1 |
| GTCATATAAC | 1.06 |
| GTCATC | 1.04 |
| GTCATCACTT | 1.06 |
| GTCATCCAGC | 1.01 |
| GTCATGCGTC | 1.03 |
| GTCATGGGTG | 1.07 |
| GTCATTACTG | 1.08 |
| GTCATTGGGC | 0.976 |
| GTCATTTATT | 1.03 |
| GTCATTTGTG | 1.01 |
| GTCCAAGTAA | 1.05 |

| Sequence | switch fluorescence ratio |
| --- | --- |
| GTCCACTAGA | 1.03 |
| GTCCCAGATT | 1.03 |
| GTCCCCGTCT | 0.925 |
| GTCCCTGGGT | 1.02 |
| GTCCGAAAGG | 1.03 |
| GTCCGGACTG | 1.02 |
| GTCCGGGTGA | 1.93 |
| GTCCGTCATC | 1.07 |
| GTCCGTTAGG | 0.976 |
| GTCCGTTGC | 1.18 |
| GTCCTAGGAG | 1.01 |
| GTCCTCACCG | 0.98 |
| GTCCTGATAC | 2.77 |
| GTCCTGGGCG | 1 |
| GTCCTTAGTT | 1.02 |
| GTCCTTCTAT | 1.03 |
| GTCCTTTTAA | 1.01 |
| GTCGAAACAC | 1.07 |
| GTCGAAAGTT | 1.01 |
| GTCGAAGCAG | 1.11 |
| GTCGAAGGAG | 1.03 |
| GTCGACGGC | 1.01 |
| GTCGAGACGG | 1.03 |
| GTCGAGCCCG | 0.98 |
| GTCGAGGCGA | 1.02 |

| Sequence | switch fluorescence ratio |
| --- | --- |
| GTCGAGGTTT | 1 |
| GTCGCAAGCT | 1.32 |
| GTCGCACACT | 1.17 |
| GTCGCCAGGG | 1.02 |
| GTCGCTGCGG | 1.01 |
| GTCGCTTACT | 1.4 |
| GTCGCTTGTT | 1 |
| GTCGGAAACG | 1.21 |
| GTCGGGTCCT | 0.993 |
| GTCGGTATGG | 1.09 |
| GTCGTACATA | 0.985 |
| GTCGTATGGA | 0.995 |
| GTCGTCCCCG | 0.974 |
| GTCGTCTCTT | 1.01 |
| GTCGTGGGTA | 0.927 |
| GTCGTTAAAC | 1.04 |
| GTCGTTCAAA | 1.03 |
| GTCGTTCCCT | 0.958 |
| GTCGTTCGAG | 0.993 |
| GTCTAGTTAT | 0.962 |
| GTCTCCCTCT | 1.03 |
| GTCTGCTGTA | 1.03 |
| GTCTGGCTGC | 0.985 |
| GTCTGGGGAT | 0.975 |
| GTCTGTAAAA | 0.993 |

| Sequence | switch fluorescence ratio |
| --- | --- |
| GTCTGTTTT | 1.02 |
| GTCTTAAAGG | 0.995 |
| GTCTTAAAGT | 1.03 |
| GTCTTAATGG | 0.994 |
| GTCTTAGTGA | 0.944 |
| GTCTTATGTC | 0.979 |
| GTCTTCGCTG | 1.05 |
| GTCTTCGG | 0.944 |
| GTCTTGGCGA | 1.05 |
| GTCTTTAAAC | 1 |
| GTCTTTAGTA | 1 |
| GTCTTTGTGT | 0.972 |
| GTCTTTTTGG | 0.946 |
| GTGAACAAGC | 0.973 |
| GTGAACTCTT | 1.03 |
| GTGAACTGGG | 1.04 |
| GTGAATAAGC | 1.03 |
| GTGAATGAGG | 0.977 |
| GTGACCCATA | 1.03 |
| GTGACGCTGG | 1.04 |
| GTGACGCTTG | 1.01 |
| GTGACGGTAG | 0.971 |
| GTGAGAGGGA | 1.01 |
| GTGAGAGGTT | 1.07 |
| GTGAGCGACA | 0.987 |

| Sequence | switch fluorescence ratio |
| --- | --- |
| GTGAGCGATC | 1.15 |
| GTGAGGAGC | 0.979 |
| GTGAGGATAC | 1.02 |
| GTGAGGCAGA | 1.09 |
| GTGAGGTTGA | 1.03 |
| GTGAGTACCG | 0.995 |
| GTGAGTACTA | 1 |
| GTGAGTGTCG | 1.03 |
| GTGAGTTTTC | 1.01 |
| GTGATAACGT | 1.01 |
| GTGATCCGCT | 1.13 |
| GTGATCGCTG | 0.94 |
| GTGATGAAAG | 1 |
| GTGATGACGC | 1.19 |
| GTGATGCGGG | 0.987 |
| GTGATGGATA | 1.04 |
| GTGATGGCGA | 1.08 |
| GTGATGTGGG | 0.99 |
| GTGATGTGTG | 0.976 |
| GTGATTAGAA | 1.03 |
| GTGATTGTTG | 0.994 |
| GTGATTTACG | 0.987 |
| GTGATTTGTG | 1.05 |
| GTGCAATCGT | 1.17 |
| GTGCACACT | 1.06 |
